{"source": "the supplement of paper PMC3334620", "note": "In all, about 33,000 sequences were measured (“E-score (-0.5 to 0.5)”: median about -0.011, highest 2% from about 0.28 on). The list shows a part of the results.", "data": [{"molecular_target": "T1, Gcr1 (UniProt P07261)", "T1 sequence": "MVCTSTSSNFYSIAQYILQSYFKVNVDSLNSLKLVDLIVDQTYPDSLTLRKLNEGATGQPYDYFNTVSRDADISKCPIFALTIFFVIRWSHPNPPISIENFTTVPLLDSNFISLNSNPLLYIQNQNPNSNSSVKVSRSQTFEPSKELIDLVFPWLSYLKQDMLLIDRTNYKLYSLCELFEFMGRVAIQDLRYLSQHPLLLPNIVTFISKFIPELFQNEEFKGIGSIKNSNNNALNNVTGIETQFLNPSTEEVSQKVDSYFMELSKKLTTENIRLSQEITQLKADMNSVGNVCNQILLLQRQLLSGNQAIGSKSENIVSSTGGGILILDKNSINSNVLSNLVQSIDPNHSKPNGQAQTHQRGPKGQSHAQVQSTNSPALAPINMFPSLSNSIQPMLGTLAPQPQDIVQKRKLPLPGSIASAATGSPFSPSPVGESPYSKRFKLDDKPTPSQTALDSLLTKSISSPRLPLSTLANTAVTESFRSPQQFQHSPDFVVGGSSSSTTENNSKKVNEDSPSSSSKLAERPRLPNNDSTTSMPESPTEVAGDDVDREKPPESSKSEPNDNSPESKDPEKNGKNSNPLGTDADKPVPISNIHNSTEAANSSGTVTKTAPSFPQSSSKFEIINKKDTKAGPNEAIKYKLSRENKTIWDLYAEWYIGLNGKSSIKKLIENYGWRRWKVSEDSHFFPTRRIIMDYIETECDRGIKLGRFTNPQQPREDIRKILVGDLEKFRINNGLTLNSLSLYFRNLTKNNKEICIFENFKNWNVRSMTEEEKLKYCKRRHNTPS", "test": "PBM E-score (8-mer binding enrichment) (E-score (-0.5 to 0.5)); higher = stronger / more preferred TF binding; most listed sequences are background and not binding sites", "conditions": "protein concentration: 100 nM; construct: GST-full length", "method_in_brief": "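Universal all-10-mer Agilent arrays, fresh or stripped once, were converted to double-stranded form by primer extension. GST-tagged yeast transcription factors from PURExpress in vitro transcription/translation, full-length or DNA-binding domain only, were applied at about 100-200 nM and detected with fluorescent anti-GST. After masliner normalisation, the Universal PBM Analysis Suite scored each ungapped eight-base word together with its reverse complement by E-score.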", "values": [{"sequence": "AGAATCCC", "PBM E-score": 0.321}, {"sequence": "CTCGGGGC", "PBM E-score": -0.101}, {"sequence": "CCCTTTTC", "PBM E-score": -0.107}, {"sequence": "CACAGTAC", "PBM E-score": 0.00655}, {"sequence": "CTCCATTC", "PBM E-score": -0.0832}, {"sequence": "AAATCATT", "PBM E-score": -0.0184}, {"sequence": "CTACGGTC", "PBM E-score": -0.119}, {"sequence": "ACGGGCAT", "PBM E-score": -0.0355}, {"sequence": "GAACGCTA", "PBM E-score": -0.111}, {"sequence": "GCAGGGAC", "PBM E-score": -0.299}, {"sequence": "GCTAGAGC", "PBM E-score": -0.135}, {"sequence": "GGGCAAAA", "PBM E-score": -0.0849}, {"sequence": "CATAGGCG", "PBM E-score": 0.0505}, {"sequence": "TACACCTA", "PBM E-score": -0.0458}, {"sequence": "CCTTCCAA", "PBM E-score": -0.0431}, {"sequence": "GTATAGCA", "PBM E-score": 0.0487}, {"sequence": "GCATATAC", "PBM E-score": -0.0524}, {"sequence": "GTTCAGTA", "PBM E-score": -0.172}, {"sequence": "ACGCGGTA", "PBM E-score": -0.0567}, {"sequence": "ATGCCATC", "PBM E-score": -0.134}, {"sequence": "AACCCGGA", "PBM E-score": 0.0755}, {"sequence": "ACCTAGCC", "PBM E-score": -0.234}, {"sequence": "AGGCTGTG", "PBM E-score": -0.182}, {"sequence": "CCGGTGCC", "PBM E-score": -0.187}, {"sequence": "CATTCGCC", "PBM E-score": 0.0285}, {"sequence": "AAAGATTT", "PBM E-score": 0.0719}, {"sequence": "CCTGACCG", "PBM E-score": -0.182}, {"sequence": "CTCGGATC", "PBM E-score": 0.0215}, {"sequence": "CAACTCTG", "PBM E-score": 0.075}, {"sequence": "AACAGACC", "PBM E-score": -0.179}, {"sequence": "CGTTATCC", "PBM E-score": -0.107}, {"sequence": "CTTCGCGA", "PBM E-score": 0.115}, {"sequence": "CGGTCAGA", "PBM E-score": -0.24}, {"sequence": "CGCGTAAC", "PBM E-score": -0.11}, {"sequence": "ATTAAAGC", "PBM E-score": -0.0613}, {"sequence": "TCACTCCA", "PBM E-score": 0.0145}, {"sequence": "CAGCGCTC", "PBM E-score": -0.125}, {"sequence": "ATCGCCGA", "PBM E-score": -0.0388}, {"sequence": "AGTCCCCA", "PBM E-score": -0.047}, {"sequence": "TCGGATAA", "PBM E-score": 0.0743}, {"sequence": "AAAAGGGT", "PBM E-score": -0.019}, {"sequence": "TCTTATAA", "PBM E-score": 0.142}, {"sequence": "AGGCCATC", "PBM E-score": -0.218}, {"sequence": "ATCAGCCA", "PBM E-score": 0.00298}, {"sequence": "TACGGGGA", "PBM E-score": 0.115}, {"sequence": "CGTTATAA", "PBM E-score": 0.0645}, {"sequence": "AGCAGTTC", "PBM E-score": -0.0649}, {"sequence": "AAATGGAC", "PBM E-score": 0.01}, {"sequence": "TCAGGTAA", "PBM E-score": -0.152}, {"sequence": "GTACGGAA", "PBM E-score": 0.0818}, {"sequence": "CTAATGTC", "PBM E-score": 0.169}, {"sequence": "ATATCCGC", "PBM E-score": 0.0368}, {"sequence": "AGTTGTTC", "PBM E-score": 0.00713}, {"sequence": "CAAAAAGG", "PBM E-score": 0.217}, {"sequence": "AGACTGTG", "PBM E-score": -0.222}, {"sequence": "CTCCTACC", "PBM E-score": -0.054}, {"sequence": "TACCCGTA", "PBM E-score": -0.012}, {"sequence": "CAGCCTGG", "PBM E-score": 0.0106}, {"sequence": "ATATCGGA", "PBM E-score": 0.0735}, {"sequence": "CATTCGTC", "PBM E-score": -0.0621}, {"sequence": "GGTTGGCA", "PBM E-score": -0.109}, {"sequence": "CTAAGTCA", "PBM E-score": -0.028}, {"sequence": "CCCAACTA", "PBM E-score": 0.144}, {"sequence": "CCCGAGAG", "PBM E-score": -0.0648}, {"sequence": "CTACGTGA", "PBM E-score": -0.0739}, {"sequence": "GCGGGCAA", "PBM E-score": -0.146}, {"sequence": "ATAGCTGC", "PBM E-score": 0.285}, {"sequence": "AATTCGCC", "PBM E-score": 0.00647}, {"sequence": "TAACCATA", "PBM E-score": 0.0179}, {"sequence": "AATCTAAC", "PBM E-score": 0.0133}, {"sequence": "GCGTTTGA", "PBM E-score": -0.204}, {"sequence": "AATATTGT", "PBM E-score": 0.144}, {"sequence": "AGCATATC", "PBM E-score": 0.0198}, {"sequence": "ATGATCCA", "PBM E-score": -0.0753}, {"sequence": "ACTACGTA", "PBM E-score": 0.00907}, {"sequence": "ACACCATA", "PBM E-score": 0.131}, {"sequence": "CCCATCTA", "PBM E-score": -0.0577}, {"sequence": "AATCTTAG", "PBM E-score": 0.0881}, {"sequence": "AGTGTTAT", "PBM E-score": -0.0233}, {"sequence": "GATCCCAC", "PBM E-score": 0.235}, {"sequence": "ATTTGCGC", "PBM E-score": 0.0154}, {"sequence": "GTAGATGA", "PBM E-score": -0.0244}, {"sequence": "TGGATCCA", "PBM E-score": 0.317}, {"sequence": "GGCGAAAC", "PBM E-score": -0.183}, {"sequence": "AGCGCTAC", "PBM E-score": -0.0646}, {"sequence": "CTGCCATA", "PBM E-score": 0.0483}]}]}
